# From the supplement of paper PMC8728848
# The list shows a part of the results.
# B1: NKR-PIC (Mus musculus) (protein)
# chain: GTGQKPSREKCCVFIQENLNKTTDCSVNLECPQDWLLHRDKCFHVSQVSNTWEEGQADCGRKGATLLLIQDQEELRFLLDSIKEKYNSFWIGLRFTLPDMNWKWINGTTFNSDVLKITGVTENGSCASILGDKVTPESCASDNRWICQKELNHETPSNDSGT
# What was measured:
# Experiment in all cases: glycan array binding signal (z-score within array); higher = stronger binding
# Conditions in all cases: glycan notation: IUPAC condensed, linker removed
# Fuc(a1-2)Gal = target: Fuc(a1-2)Gal
# Procedure, shortened: (§1)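 The Consortium for Functional Glycomics database supplied 3228 glycan arrays, of which those lacking an available protein sequence were dropped. The binding signal, a within-array Z-score, was averaged across arrays of the same protein sequence and across linkers. Negative scores can be read as non-binding.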
# Fuc(a1-2)Gal(b1-3)GalNAc = target: Fuc(a1-2)Gal(b1-3)GalNAc
# Procedure, shortened: as §1
# [1] = target: Fuc(a1-2)Gal(b1-3)GalNAc(a1-3)[Fuc(a1-2)]Gal(b1-4)Glc
# Procedure, shortened: as §1
# [2] = target: Fuc(a1-2)Gal(b1-3)GalNAc(a1-3)[Fuc(a1-2)]Gal(b1-4)GlcNAc
# Procedure, shortened: as §1
# [3] = target: Fuc(a1-2)Gal(b1-3)GalNAc(b1-3)Gal
# Procedure, shortened: as §1
# [4] = target: Fuc(a1-2)Gal(b1-3)GalNAc(b1-3)Gal(a1-4)Gal(b1-4)Glc
# Procedure, shortened: as §1
# [5] = target: Fuc(a1-2)Gal(b1-3)GalNAc(b1-4)[Neu5Ac(a2-3)]Gal(b1-4)Glc
# Procedure, shortened: as §1
# Fuc(a1-2)Gal(b1-3)GlcNAc = target: Fuc(a1-2)Gal(b1-3)GlcNAc
# Procedure, shortened: as §1
# [6] = target: Fuc(a1-2)Gal(b1-3)GlcNAc(b1-2)Man(a1-3)[Fuc(a1-2)Gal(b1-3)GlcNAc(b1-2)Man(a1-6)]Man(b1-4)GlcNAc(b1-4)GlcNAc
# Procedure, shortened: as §1
# [7] = target: Fuc(a1-2)Gal(b1-3)GlcNAc(b1-2)Man(a1-3)[Fuc(a1-2)Gal(b1-3)GlcNAc(b1-2)Man(a1-6)]Man(b1-4)GlcNAc(b1-4)[Fuc(a1-6)]GlcNAc
# Procedure, shortened: as §1
# [8] = target: Fuc(a1-2)Gal(b1-3)GlcNAc(b1-3)Gal(b1-4)Glc
# Procedure, shortened: as §1
# [9] = target: Fuc(a1-2)Gal(b1-3)GlcNAc(b1-3)GalNAc
# Procedure, shortened: as §1
# [10] = target: Fuc(a1-2)Gal(b1-3)GlcNAc(b1-3)[Fuc(a1-2)Gal(b1-3)GlcNAc(b1-6)]GalNAc
# Procedure, shortened: as §1
# [11] = target: Fuc(a1-2)Gal(b1-3)GlcNAc(b1-3)[Gal(b1-4)GlcNAc(b1-6)]Gal(b1-4)Glc
# Procedure, shortened: as §1
# [12] = target: Fuc(a1-2)Gal(b1-3)GlcNAc(b1-3)[Neu5Ac(a2-6)Gal(b1-4)GlcNAc(b1-6)]Gal(b1-4)Glc
# Procedure, shortened: as §1
# [13] = target: Fuc(a1-2)Gal(b1-3)GlcNAc6S
# Procedure, shortened: as §1
# [14] = target: Fuc(a1-2)Gal(b1-3)[Fuc(a1-4)]GlcNAc
# Procedure, shortened: as §1
# [15] = target: Fuc(a1-2)Gal(b1-3)[Fuc(a1-4)]GlcNAc(b1-2)Man(a1-3)[Fuc(a1-2)Gal(b1-3)[Fuc(a1-4)]GlcNAc(b1-2)Man(a1-3)]Man(b1-4)GlcNAc(b1-4)GlcNAc
# Procedure, shortened: as §1
# [16] = target: Fuc(a1-2)Gal(b1-3)[Fuc(a1-4)]GlcNAc(b1-2)Man(a1-3)[Fuc(a1-2)Gal(b1-3)[Fuc(a1-4)]GlcNAc(b1-2)Man(a1-6)]Man(b1-4)GlcNAc(b1-4)[Fuc(a1-6)]GlcNAc(b1-4)[Fuc(a1-6)]GlcNAc
# Procedure, shortened: as §1
# [17] = target: Fuc(a1-2)Gal(b1-3)[Fuc(a1-4)]GlcNAc(b1-3)[Fuc(a1-3)[Gal(b1-4)]GlcNAc(b1-6)]Gal(b1-4)Glc
# Procedure, shortened: as §1
# [18] = target: Fuc(a1-2)Gal(b1-3)[Fuc(a1-4)]GlcNAc(b1-3)[Gal(b1-4)GlcNAc(b1-6)]Gal(b1-4)Glc
# Procedure, shortened: as §1
# [19] = target: Fuc(a1-2)Gal(b1-4)Fuc(a1-3)]GlcNAc(b1-2)Man(a1-3)[Fuc(a1-2)Gal(b1-4)[Fuc(a1-3)]GlcNAc(b1-2)Man(a1-6)]Man(b1-4)GlcNAc(b1-4)GlcNAc
# Procedure, shortened: as §1
# Fuc(a1-2)Gal(b1-4)Glc = target: Fuc(a1-2)Gal(b1-4)Glc
# Procedure, shortened: as §1
# Fuc(a1-2)Gal(b1-4)Glc6S = target: Fuc(a1-2)Gal(b1-4)Glc6S
# Procedure, shortened: as §1
# Fuc(a1-2)Gal(b1-4)GlcNAc = target: Fuc(a1-2)Gal(b1-4)GlcNAc
# Procedure, shortened: as §1
# [20] = target: Fuc(a1-2)Gal(b1-4)GlcNAc(b1-2)Man
# Procedure, shortened: as §1
# [21] = target: Fuc(a1-2)Gal(b1-4)GlcNAc(b1-2)Man(a1-3)[Fuc(a1-2)Gal(b1-4)GlcNAc(b1-2)Man(a1-6)]Man(b1-4)GlcNAc(b1-4)GlcNAc
# Procedure, shortened: as §1
# [22] = target: Fuc(a1-2)Gal(b1-4)GlcNAc(b1-2)Man(a1-3)[Fuc(a1-2)Gal(b1-4)GlcNAc(b1-2)Man(a1-6)]Man(b1-4)GlcNAc(b1-4)[Fuc(a1-6)]GlcNAc
# Procedure, shortened: as §1
# [23] = target: Fuc(a1-2)Gal(b1-4)GlcNAc(b1-2)[Fuc(a1-2)Gal(b1-4)GlcNAc(b1-4)]Man(a1-3)[Fuc(a1-2)Gal(b1-4)GlcNAc(b1-2)Man(a1-6)]Man(b1-4)GlcNAc(b1-4)GlcNAc
# Procedure, shortened: as §1
# [24] = target: Fuc(a1-2)Gal(b1-4)GlcNAc(b1-3)Gal(b1-4)GlcNAc
# Procedure, shortened: as §1
binder,measurement,setting,value
B1,glycan array binding signal (z-score),Fuc(a1-2)Gal,-0.371
same,glycan array binding signal (z-score),Fuc(a1-2)Gal(b1-3)GalNAc,-0.288
same,glycan array binding signal (z-score),[1],-0.357
same,glycan array binding signal (z-score),[2],-0.235
same,glycan array binding signal (z-score),[3],-0.268
same,glycan array binding signal (z-score),[4],-0.41
same,glycan array binding signal (z-score),[5],-0.278
same,glycan array binding signal (z-score),Fuc(a1-2)Gal(b1-3)GlcNAc,-0.281
same,glycan array binding signal (z-score),[6],-0.138
same,glycan array binding signal (z-score),[7],-0.343
same,glycan array binding signal (z-score),[8],-0.342
same,glycan array binding signal (z-score),[9],-0.371
same,glycan array binding signal (z-score),[10],-0.237
same,glycan array binding signal (z-score),[11],-0.319
same,glycan array binding signal (z-score),[12],-0.362
same,glycan array binding signal (z-score),[13],-0.411
same,glycan array binding signal (z-score),[14],-0.358
same,glycan array binding signal (z-score),[15],-0.307
same,glycan array binding signal (z-score),[16],-0.31
same,glycan array binding signal (z-score),[17],-0.309
same,glycan array binding signal (z-score),[18],-0.363
same,glycan array binding signal (z-score),[19],-0.301
same,glycan array binding signal (z-score),Fuc(a1-2)Gal(b1-4)Glc,-0.376
same,glycan array binding signal (z-score),Fuc(a1-2)Gal(b1-4)Glc6S,-0.344
same,glycan array binding signal (z-score),Fuc(a1-2)Gal(b1-4)GlcNAc,-0.25
same,glycan array binding signal (z-score),[20],-0.316
same,glycan array binding signal (z-score),[21],-0.242
same,glycan array binding signal (z-score),[22],-0.165
same,glycan array binding signal (z-score),[23],-0.284
same,glycan array binding signal (z-score),[24],-0.254
